{
  "source": "paper PMC4336329",
  "about": "(PLoS ONE, 2015)",
  "note": "Screen size: about 310,000 compounds; about 14,000 (4.5%) showed an effect of 50% or more. Effects have a minus sign here. Some of the results follow.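 Note: peak tail current of the secondary pulse compared with the same well before compound.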",
  "data": [
    {"target": "human ether-à-go-go-related gene (hERG) potassium channel (human, UniProt Q12809)", "sequence (Q12809 whole entry, looked up)": "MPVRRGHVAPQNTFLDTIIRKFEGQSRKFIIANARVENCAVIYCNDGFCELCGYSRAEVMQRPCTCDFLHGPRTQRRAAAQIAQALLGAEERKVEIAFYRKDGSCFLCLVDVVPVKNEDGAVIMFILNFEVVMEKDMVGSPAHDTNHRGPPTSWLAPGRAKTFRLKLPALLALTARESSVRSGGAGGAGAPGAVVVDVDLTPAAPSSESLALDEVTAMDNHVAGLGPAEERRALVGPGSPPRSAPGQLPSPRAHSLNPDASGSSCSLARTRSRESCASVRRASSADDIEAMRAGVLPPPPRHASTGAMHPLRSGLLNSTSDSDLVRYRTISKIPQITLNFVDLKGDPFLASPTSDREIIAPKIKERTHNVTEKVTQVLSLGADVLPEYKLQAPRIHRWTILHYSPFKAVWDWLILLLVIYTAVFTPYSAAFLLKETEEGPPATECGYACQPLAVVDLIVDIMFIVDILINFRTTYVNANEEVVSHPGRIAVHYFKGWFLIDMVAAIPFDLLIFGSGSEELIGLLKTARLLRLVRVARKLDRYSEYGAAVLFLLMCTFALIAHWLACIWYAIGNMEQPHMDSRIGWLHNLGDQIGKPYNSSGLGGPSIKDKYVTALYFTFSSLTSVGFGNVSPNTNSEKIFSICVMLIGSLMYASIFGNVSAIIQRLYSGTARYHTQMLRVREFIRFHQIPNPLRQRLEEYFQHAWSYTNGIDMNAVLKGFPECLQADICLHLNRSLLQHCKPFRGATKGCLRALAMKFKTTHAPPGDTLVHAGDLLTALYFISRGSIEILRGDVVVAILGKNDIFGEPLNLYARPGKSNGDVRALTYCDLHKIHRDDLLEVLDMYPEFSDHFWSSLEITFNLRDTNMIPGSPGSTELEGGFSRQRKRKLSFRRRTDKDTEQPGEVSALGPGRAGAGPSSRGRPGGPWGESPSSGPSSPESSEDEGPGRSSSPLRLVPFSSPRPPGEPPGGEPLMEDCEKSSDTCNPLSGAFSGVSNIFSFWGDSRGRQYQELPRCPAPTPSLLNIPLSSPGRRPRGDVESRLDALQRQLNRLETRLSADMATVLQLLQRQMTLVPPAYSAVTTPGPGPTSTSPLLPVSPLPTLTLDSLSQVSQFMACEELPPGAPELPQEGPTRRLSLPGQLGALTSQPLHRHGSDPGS", "assay": "primary screen, population patch clamp on CHO cells stably expressing hERG", "units": {"hERG current change (%, negative = inhibition) at 10uM": "%"}, "values": [
      {"compound": "COc1ccc(OC)c(-c2csc(NC(=O)COC(=O)c3ccc(NC(=O)CC#N)cc3)n2)c1", "hERG current change (%, negative = inhibition) at 10uM": 14.5},
      {"compound": "CCCCOc1ncnc2c1[nH]c1ccc(OC)cc12", "hERG current change (%, negative = inhibition) at 10uM": 15},
      {"compound": "CC(=O)C(=[N+]=[N-])C(=O)NCc1ccccc1", "hERG current change (%, negative = inhibition) at 10uM": 11.3},
      {"compound": "O=C(O)CSc1nnc(-c2ccccc2Br)n1-c1cccc(C(F)(F)F)c1", "hERG current change (%, negative = inhibition) at 10uM": 15.6},
      {"compound": "COc1cc(S(=O)(=O)N2CCN3CCCC3C2)ccc1-n1cnnn1", "note": "(stereo not shown)", "hERG current change (%, negative = inhibition) at 10uM": 2.05},
      {"compound": "Cc1ccc(CSCCNC(=O)CN2C(=O)c3ccccc3S2(=O)=O)cc1", "hERG current change (%, negative = inhibition) at 10uM": 2.49},
      {"compound": "CC(C)c1[nH]nc2c1C1(CCN(Cc3ccccc3)CC1)C(C#N)=C(N)O2", "hERG current change (%, negative = inhibition) at 10uM": -25.5},
      {"compound": "CN(C(=O)COC(=O)c1ccccc1NC(=O)c1ccco1)C1CCS(=O)(=O)C1", "note": "(stereo not shown)", "hERG current change (%, negative = inhibition) at 10uM": -62.3},
      {"compound": "O=C(C1CCN(c2nnc(-n3cccc3)s2)CC1)N1CCCCC1", "hERG current change (%, negative = inhibition) at 10uM": -6.55},
      {"compound": "CCOCCCNS(=O)(=O)c1ccc(NC(=O)Cc2c(F)cccc2Cl)cc1", "hERG current change (%, negative = inhibition) at 10uM": 3.38},
      {"compound": "CCNC(=S)N1CCn2cccc2C1c1cccnc1", "note": "(stereo not shown)", "hERG current change (%, negative = inhibition) at 10uM": -17.1},
      {"compound": "CC(=O)OC1N=C(c2ccc(Cl)cc2)c2cc(Br)ccc2NC1=O", "note": "(stereo not shown)", "hERG current change (%, negative = inhibition) at 10uM": -55},
      {"compound": "Cc1c(NC(=O)c2ccc(N3CCCC3)c([N+](=O)[O-])c2)cccc1-c1nc2ccccc2s1", "hERG current change (%, negative = inhibition) at 10uM": 6.37},
      {"compound": "Cc1nn(-c2ccccc2)c(=O)c2ccccc12", "hERG current change (%, negative = inhibition) at 10uM": 25.3},
      {"compound": "CCn1ccnc1CN1CCc2c([nH]c3ccccc23)C1C1CCCCC1", "note": "(stereo not shown)", "hERG current change (%, negative = inhibition) at 10uM": -19.4},
      {"compound": "CCO[C@H]1OC(C(=O)N2CCN(C)CC2)=C[C@@H](C2CC2)[C@@H]1CCCO", "hERG current change (%, negative = inhibition) at 10uM": 15.4},
      {"compound": "CC(NC(=O)C(=O)N/N=C/c1ccccc1)c1ccccc1", "note": "(stereo not shown)", "hERG current change (%, negative = inhibition) at 10uM": 25.8},
      {"compound": "COc1cccc(CN=CC2=C(O)CC(C)(C)CC2=O)c1OC", "hERG current change (%, negative = inhibition) at 10uM": 2.05},
      {"compound": "Cc1ccc(S(=O)(=O)Nc2cccc3cccnc23)c([N+](=O)[O-])c1", "hERG current change (%, negative = inhibition) at 10uM": 8.38},
      {"compound": "O=C(Nc1csnn1)c1csnn1", "hERG current change (%, negative = inhibition) at 10uM": 26.4},
      {"compound": "Cc1ccc(C(=O)NNC(=O)c2ccc(SCC3CCCO3)c([N+](=O)[O-])c2)cc1", "note": "(stereo not shown)", "hERG current change (%, negative = inhibition) at 10uM": -5.06},
      {"compound": "CCC(C)NC(=O)C1c2cc(OC)c(OC)cc2C(=O)N(C)C1c1ccc(OC)cc1", "note": "(stereo not shown)", "hERG current change (%, negative = inhibition) at 10uM": -6.17},
      {"compound": "CC(NC(=O)COC(=O)c1ccc2c(c1)OCO2)c1ccccc1", "note": "(stereo not shown)", "hERG current change (%, negative = inhibition) at 10uM": 6.03},
      {"compound": "Cc1ccc(C)c(SCC(=O)OCC(=O)NCc2ccccc2)c1", "hERG current change (%, negative = inhibition) at 10uM": 18.4},
      {"compound": "Cc1ccc(Cl)cc1NC(=O)C1CCCN(c2cnccn2)C1", "note": "(stereo not shown)", "hERG current change (%, negative = inhibition) at 10uM": -23.1},
      {"compound": "CCN(CC)S(=O)(=O)c1ccc(Cl)c(NC(=O)COC(=O)c2ccc(O)cc2)c1", "hERG current change (%, negative = inhibition) at 10uM": -21.4},
      {"compound": "Cc1ccc(NS(=O)(=O)c2csc(C(N)=O)c2)c(C)c1", "hERG current change (%, negative = inhibition) at 10uM": 32.1},
      {"compound": "COc1ccc(C(=O)NCC(=O)N/N=C/C=C/c2ccccc2)cc1OC", "hERG current change (%, negative = inhibition) at 10uM": -93.6},
      {"compound": "O=C(c1ccncc1)N(c1ccc2oc3c(c2c1)CCCC3)S(=O)(=O)c1cccc([N+](=O)[O-])c1", "hERG current change (%, negative = inhibition) at 10uM": 3.25},
      {"compound": "O=C(COC(=O)Cc1c(F)cccc1Cl)NC(=O)c1ccccc1", "hERG current change (%, negative = inhibition) at 10uM": 15.3},
      {"compound": "C=CCn1c(SCC(=O)O)nnc1-c1ccccc1", "hERG current change (%, negative = inhibition) at 10uM": -3.24},
      {"compound": "CC1=C2[C@H]3OC(=O)[C@@H](C)[C@@H]3CC[C@@]2(C)C=CC1=O", "hERG current change (%, negative = inhibition) at 10uM": 9.85},
      {"compound": "Cc1ccc(Cl)cc1N1CCN(C(=O)CCS(=O)(=O)c2cccc3nonc23)CC1", "hERG current change (%, negative = inhibition) at 10uM": -21.5},
      {"compound": "O=S1(=O)N(Cc2ccc(F)cc2)CCCN1Cc1ccccc1Cl", "hERG current change (%, negative = inhibition) at 10uM": 10.6},
      {"compound": "N#CC1=C(N)Oc2n[nH]c(-c3cccs3)c2C1c1ccsc1", "note": "(stereo not shown)", "hERG current change (%, negative = inhibition) at 10uM": 11},
      {"compound": "Cc1ccc2cc(CNC(C)C)c(=O)[nH]c2c1", "hERG current change (%, negative = inhibition) at 10uM": -9.38},
      {"compound": "CCOc1ccc(NC(=O)C(C)Oc2ccccc2C(=O)Nc2cccc(Cl)c2Cl)cc1", "note": "(stereo not shown)", "hERG current change (%, negative = inhibition) at 10uM": 10.8},
      {"compound": "Br.O=c1cc2c(n[nH]1)CCCC2", "hERG current change (%, negative = inhibition) at 10uM": 3.1},
      {"compound": "CCN(C(=O)[C@@H]1CCCN1C(=O)c1cccs1)c1nc2cc(Cl)ccc2s1", "hERG current change (%, negative = inhibition) at 10uM": -36},
      {"compound": "CC(=O)Oc1ccc(C(=O)Nc2ccc(C3(C#N)CCCC3)cc2)cc1", "hERG current change (%, negative = inhibition) at 10uM": 24},
      {"compound": "CCCC(=O)Nc1ccc(NC(=S)NC(=O)c2ccccc2[N+](=O)[O-])cc1", "hERG current change (%, negative = inhibition) at 10uM": 9},
      {"compound": "COc1cc(C2C(C#N)=C(N)Oc3n[nH]c(-c4cccnc4)c32)cc(Br)c1O", "note": "(stereo not shown)", "hERG current change (%, negative = inhibition) at 10uM": 2.34},
      {"compound": "Cn1c(NC(=O)c2ccc3c(c2)OCO3)cc(=O)n(C)c1=O", "hERG current change (%, negative = inhibition) at 10uM": 11.2}
    ]}
  ]
}
